Source: the RNAGym collection of RNA variant scans (doi:10.1073/pnas.2313332121)
Variants at the background level are over-represented here.

B1: TPR 5TU (parent)
chain: GGAUCUUCUCGAUCUAACAAAAAAGACAAAUCUGCCACAAAGCUUGAGAGCAUCUUCGGAUGCAGAGGCGGCAGCCUUCGGUGGCGCGAUAGCGCCAACGUUCUCAACUAUGACACGCAAAACGCGUGCUCCGUUGAAUGGAGUUUAUCAUG

Variants of: B1
Experiment: polymerase ribozyme fitness, log enrichment relative to wild type (log ratio); higher = more active; in vitro selection for triplet polymerase activity
Procedure, shortened: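 Genotype fitness is the logarithm of its enrichment divided by wild-type enrichment, using inverse-variance-weighted averages of replicates. That logarithm is base 2. Enrichment was measured by Illumina sequencing of input and output libraries from one triplicate in vitro selection round, with frozen incubation at −7 °C, on PCR-built, transcribed mutant libraries of each subunit of a heterodimeric triplet polymerase ribozyme, retaining genotypes with ≥10 input reads and ≥1 read per output.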

**Q.** With GGAUCUUCUCGAUCUAACAAAAAAGACAAAUCUGCCACAAAGCUUGAGAGCAUCUUCGGAUGCAGAGGCGGCAGCCUUCGGUGGCGCGAUAGAGCCAACGUUCUCAAAUAUGACACGCAAAACGCGUGCUCCGUUGAAUGGAGUUUAUCAUG [C93A C108A] as the variant, how does the “polymerase ribozyme fitness (log ratio)” value read?
**A.** The value was no more than -4.2.

**Q.** With GGAUCUUCUCGAUCUAACAAAAAAGACAAAUCUGCCACAAAGCUUGAGAGCAUCUUCGGAUGCAGAGGCGGCAGCCUUCGGUGGCGCGAUAGAGCCAACGUUCUCAACUAUGACACGUAAAACGAGUGCUCCGUUGAAUGGGGUUUAUCAUG [C93A C118U C125A A142G] as the variant, how does the “polymerase ribozyme fitness (log ratio)” value read?
**A.** The value was no more than -4.2.

**Q.** For GGAUCUUCUCGAUCUAACAAAAAAGACAAAUCUGCCACAAAGCUUGAGAGCAUCUUCGGAUGCAGAGGCGGCAGCCUUCGGUGGCGCGAUAGAGCCAACGUUCUCAACUAUGACACUCAAAACGCGUGCUCCGUUGAAUGGAGUUUAUCAUG [C93A G117U], which “polymerase ribozyme fitness (log ratio)” value is on record?
**A.** The value was -1.92.

**Q.** With GGAUCUUCUCGAUCUAACAAAAAAGACAAAUCUGCCACAAAGCUUGAGAGCAUCUUCGGAUGCAGAGGCGGCAGCCUUCGGUGGCGCGAUAGAGCCAACGUCCUAAACUAUGACACGCAAAACGGGUGCUCCGUUGAAUGGAUAUUAUCAUG [C93A U102C C105A C125G G143U U144A] as the variant, how does the “polymerase ribozyme fitness (log ratio)” value read?
**A.** Its value is no more than -4.2.

**Q.** Which “polymerase ribozyme fitness (log ratio)” value does the source give for GGAUCUUCUCGAUCUAACAAAAAAGACAAAUCUGCCACAAAGCUUGAGAGCAUCUUCGGAUGCAGAGGCGGCAGCCUUCGGUGGCGCGAUAGGGCCAACGUUGUCAACUAUGACACGCAAAACGAGUGCUCCGUUGAAUGGAGUUUAUCAUG [C93G C103G C125A] here?
**A.** The value was no more than -4.2.

**Q.** Which “polymerase ribozyme fitness (log ratio)” value does the source give for GGAUCUUCUCGAUCUAACAAAAAAGACAAAUCUGCCACAAAGCUUGAGAGCAUCUUCGGAUGCAGAGGCGGCAGCCUUCGGUGGCGCGAUAGGGCCAACGUUCUCAAAUAUGACGCGCAAAACGCGUGCUCCGUUGAAUGGAGUUUAUCAUG [C93G C108A A115G] here?
**A.** Its value is no more than -4.2.

**Q.** Which “polymerase ribozyme fitness (log ratio)” value does the source give for GGAUCUUCUCGAUCUAACAAAAAAGACAAAUCUGCCACAAAGCUUGAGAGCAUCUUCGGAUGCAGAGGCGGCAGCCUUCGGUGGCGCGAUAGGGCCAACGUUCUCAAUUAUGACAGGCAAAACGCGUGCUCCGUUGAAUGGAGUUUAUCAUG [C93G C108U C116G] here?
**A.** The value was no more than -4.2.

**Q.** Which “polymerase ribozyme fitness (log ratio)” value does the source give for GGAUCUUCUCGAUCUAACAAAAAAGACAAAUCUGCCACAAAGCUUGAGAGCAUCUUCGGAUGCAGAGGCGGCAGCCUUCGGUGGCGCGAUAGGGCCAACGUUCUCAACUAUGAGACGCAAAUCGCGUGCUCCGUUGAAUGGAGUUUAUCGUG [C93G C114G A122U A150G] here?
**A.** Its value is no more than -4.2.

**Q.** Which “polymerase ribozyme fitness (log ratio)” value does the source give for GGAUCUUCUCGAUCUAACAAAAAAGACAAAUCUGCCACAAAGCUUGAGAGCAUCUUCGGAUGCAGAGGCGGCAGCCUUCGGUGGCGCGAUAGGGCCAACGUUCUCAACUAUGACAUGCAAAACGCGUGCUCCGUUGAAUGGAGUUUAUCAUG [C93G C116U] here?
**A.** Its value is -3.07.

**Q.** With GGAUCUUCUCGAUCUAACAAAAAAGACAAAUCUGCCACAAAGCUUGAGAGCAUCUUCGGAUGCAGAGGCGGCAGCCUUCGGUGGCGCGAUAGGGCCAACGUUCUCAACUAUGACACGCAAAACGCGUGCUCCGUUGAAUGGAGUUUAUAAUG [C93G C149A] as the variant, how does the “polymerase ribozyme fitness (log ratio)” value read?
**A.** Its value is no more than -4.2.

**Q.** Which “polymerase ribozyme fitness (log ratio)” value does the source give for GGAUCUUCUCGAUCUAACAAAAAAGACAAAUCUGCCACAAAGCUUGAGAGCAUCUUCGGAUGCAGAGGCGGCAGCCUUCGGUGGCGCGAUAGGUACAACGUUCUCAACUAUGACACGCAAAACGCGUACUCCGUUGAAUGGAGUUUAUCAUG [C93G G94U C95A G128A] here?
**A.** Its value is no more than -4.2.

**Q.** Which “polymerase ribozyme fitness (log ratio)” value does the source give for GGAUCUUCUCGAUCUAACAAAAAAGACAAAUCUGCCACAAAGCUUGAGAGCAUCUUCGGAUGCAGAGGCGGCAGCCUUCGGUGGCGCGAUAGGGCCAACGUUCUCAACUAUGACACGCAAAACGCGUGCUCCGUUGAAUCGAGUUUAUCAUG [C93G G140C] here?
**A.** The value was no more than -4.2.

**Q.** For GGAUCUUCUCGAUCUAACAAAAAAGACAAAUCUGCCACAAAGCUUGAGAGCAUCUUCGGAUGCAGAGGCGGCAGCCUUCGGUGGCGCGAUAGGGCCAACGUUCUCAACUAUGACACGCAAAACGCGUGCUCCGUUGAAUGGAGUUUAUCAUU [C93G G152U], which “polymerase ribozyme fitness (log ratio)” value is on record?
**A.** Its value is no more than -4.2.

**Q.** With GGAUCUUCUCGAUCUAACAAAAAAGACAAAUCUGCCACAAAGCUUGAGAGCAUCUUCGGAUGCAGAGGCGGCAGCCUUCGGUGGCGCGAUAGGGCCAACGUGCUCAACUAUGACACGCAAAACGCGUGCUCCGUUGAAUGGAGUUUAUCAUG [C93G U102G] as the variant, how does the “polymerase ribozyme fitness (log ratio)” value read?
**A.** Its value is no more than -4.2.

**Q.** For GGAUCUUCUCGAUCUAACAAAAAAGACAAAUCUGCCACAAAGCUUGAGAGCAUCUUCGGAUGCAGAGGCGGCAGCCUUCGGUGGCGCGAUAGGGCCAACGUUCUCAACUAGGACACGCAAAACGCGUGCUCCGUUGAAUGGAGUUUAUCAUG [C93G U111G], which “polymerase ribozyme fitness (log ratio)” value is on record?
**A.** The value was no more than -4.2.

**Q.** For GGAUCUUCUCGAUCUAACAAAAAAGACAAAUCUGCCACAAAGCUUGAGAGCAUCUUCGGAUGCAGAGGCGGCAGCCUUCGGUGGCGCGAUAGGGCCAACGUUCUCAACUAUGACACGCAAAACGCGUGCUCCGUUGAAUGGAGUGUAUCAUG [C93G U145G], which “polymerase ribozyme fitness (log ratio)” value is on record?
**A.** The value was -2.53.

**Q.** For GGAUCUUCUCGAUCUAACAAAAAAGACAAAUCUGCCACAAAGCUUGAGAGCAUCUUCGGAUGCAGAGGCGGCAGCCUUCGGUGGCGCGAUAGUGCCAACGUUCUCCACUAUGACACGCAAAACGCGUGGUCCGUUGAAUGGAAUUUAUCAUG [C93U A106C C129G G143A], which “polymerase ribozyme fitness (log ratio)” value is on record?
**A.** The value was -3.64.

**Q.** For GGAUCUUCUCGAUCUAACAAAAAAGACAAAUCUGCCACAAAGCUUGAGAGCAUCUUCGGAUGCAGAGGCGGCAGCCUUCGGUGGCGCGAUAGUGCCAACGUUCUCAGCUAUGACACGCAAAACGCGUGCUCCGUUGAAUGUAGUUUAUCAUG [C93U A107G G141U], which “polymerase ribozyme fitness (log ratio)” value is on record?
**A.** Its value is no more than -4.2.

**Q.** For GGAUCUUCUCGAUCUAACAAAAAAGACAAAUCUGCCACAAAGCUUGAGAGCAUCUUCGGAUGCAGAGGCGGCAGCCUUCGGUGGCGCGAUAGUGCCAACGUUCUCAUCUAUGACACGCAAAACGCGUGCUCCGUUGAAUGGAGUUUAUCAUG [C93U A107U], which “polymerase ribozyme fitness (log ratio)” value is on record?
**A.** Its value is -4.04.
